Measurements reported in publication PMC5678581 (BMC Biology, 2017).
These are yes or no findings as the source states them, for the method shown. Binding seen in cells or lysates may run through a third protein. Some binding calls cover weakened binding; strength is not graded here.

Sequences of proteins named here, by UniProt entry; tags and fusion partners are left off. A change or cut given only in a name is not applied to a line headed by its entry. A line that says so, or that is headed by a name, gives the form on record, which may keep a tag or linker. Residues count along the entry.
UniProt Q14258: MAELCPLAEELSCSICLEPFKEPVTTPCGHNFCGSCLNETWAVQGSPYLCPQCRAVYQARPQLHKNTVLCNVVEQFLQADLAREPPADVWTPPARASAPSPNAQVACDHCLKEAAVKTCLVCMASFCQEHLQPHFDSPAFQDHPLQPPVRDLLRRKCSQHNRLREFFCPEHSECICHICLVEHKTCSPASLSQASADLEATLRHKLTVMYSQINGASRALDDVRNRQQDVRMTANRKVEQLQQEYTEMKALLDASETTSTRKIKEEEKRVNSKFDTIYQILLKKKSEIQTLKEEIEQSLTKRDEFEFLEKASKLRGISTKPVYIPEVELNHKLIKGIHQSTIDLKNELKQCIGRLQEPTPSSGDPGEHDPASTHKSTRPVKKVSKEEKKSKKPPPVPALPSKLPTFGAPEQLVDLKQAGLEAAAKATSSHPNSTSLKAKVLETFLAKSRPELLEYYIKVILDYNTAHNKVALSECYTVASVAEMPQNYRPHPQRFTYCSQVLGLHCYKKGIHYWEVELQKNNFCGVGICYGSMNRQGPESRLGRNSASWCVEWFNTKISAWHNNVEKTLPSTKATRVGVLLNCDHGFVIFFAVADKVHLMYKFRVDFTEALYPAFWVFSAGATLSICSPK
T7-tagged TRIM25ΔRBD (lacking residues 470–508) (Q14258, form named): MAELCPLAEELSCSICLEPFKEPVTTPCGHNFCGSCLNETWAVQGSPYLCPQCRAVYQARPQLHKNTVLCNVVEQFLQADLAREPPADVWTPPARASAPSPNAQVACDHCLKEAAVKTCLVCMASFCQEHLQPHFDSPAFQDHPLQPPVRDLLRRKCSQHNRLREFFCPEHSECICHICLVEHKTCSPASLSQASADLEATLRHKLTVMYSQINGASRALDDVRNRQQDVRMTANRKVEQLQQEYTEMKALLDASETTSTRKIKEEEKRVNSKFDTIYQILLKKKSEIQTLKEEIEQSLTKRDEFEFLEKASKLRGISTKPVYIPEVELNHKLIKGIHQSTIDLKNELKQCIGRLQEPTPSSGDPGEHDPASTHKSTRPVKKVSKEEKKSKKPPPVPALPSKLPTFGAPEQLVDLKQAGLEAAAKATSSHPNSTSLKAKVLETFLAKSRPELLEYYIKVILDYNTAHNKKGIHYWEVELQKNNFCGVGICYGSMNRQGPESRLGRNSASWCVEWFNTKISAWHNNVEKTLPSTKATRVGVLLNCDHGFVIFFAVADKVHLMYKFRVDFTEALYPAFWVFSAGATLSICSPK
UniProt P17844: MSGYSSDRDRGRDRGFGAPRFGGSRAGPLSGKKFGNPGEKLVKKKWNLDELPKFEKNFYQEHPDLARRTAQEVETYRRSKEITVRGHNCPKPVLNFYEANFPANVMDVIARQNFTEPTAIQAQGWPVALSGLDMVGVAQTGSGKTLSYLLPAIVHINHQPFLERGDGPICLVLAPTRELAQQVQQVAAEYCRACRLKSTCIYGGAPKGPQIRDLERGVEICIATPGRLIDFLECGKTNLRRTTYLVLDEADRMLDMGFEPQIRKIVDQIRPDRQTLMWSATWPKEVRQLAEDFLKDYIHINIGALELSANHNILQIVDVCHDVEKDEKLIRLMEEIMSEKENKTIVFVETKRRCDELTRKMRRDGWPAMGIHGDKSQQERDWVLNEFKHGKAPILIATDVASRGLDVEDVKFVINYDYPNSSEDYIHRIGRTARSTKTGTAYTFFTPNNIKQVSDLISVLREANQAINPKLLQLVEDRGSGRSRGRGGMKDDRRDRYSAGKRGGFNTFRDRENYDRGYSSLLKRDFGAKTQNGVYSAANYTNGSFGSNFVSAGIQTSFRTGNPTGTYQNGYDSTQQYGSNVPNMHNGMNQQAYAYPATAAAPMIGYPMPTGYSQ
UniProt Q7Z2W4: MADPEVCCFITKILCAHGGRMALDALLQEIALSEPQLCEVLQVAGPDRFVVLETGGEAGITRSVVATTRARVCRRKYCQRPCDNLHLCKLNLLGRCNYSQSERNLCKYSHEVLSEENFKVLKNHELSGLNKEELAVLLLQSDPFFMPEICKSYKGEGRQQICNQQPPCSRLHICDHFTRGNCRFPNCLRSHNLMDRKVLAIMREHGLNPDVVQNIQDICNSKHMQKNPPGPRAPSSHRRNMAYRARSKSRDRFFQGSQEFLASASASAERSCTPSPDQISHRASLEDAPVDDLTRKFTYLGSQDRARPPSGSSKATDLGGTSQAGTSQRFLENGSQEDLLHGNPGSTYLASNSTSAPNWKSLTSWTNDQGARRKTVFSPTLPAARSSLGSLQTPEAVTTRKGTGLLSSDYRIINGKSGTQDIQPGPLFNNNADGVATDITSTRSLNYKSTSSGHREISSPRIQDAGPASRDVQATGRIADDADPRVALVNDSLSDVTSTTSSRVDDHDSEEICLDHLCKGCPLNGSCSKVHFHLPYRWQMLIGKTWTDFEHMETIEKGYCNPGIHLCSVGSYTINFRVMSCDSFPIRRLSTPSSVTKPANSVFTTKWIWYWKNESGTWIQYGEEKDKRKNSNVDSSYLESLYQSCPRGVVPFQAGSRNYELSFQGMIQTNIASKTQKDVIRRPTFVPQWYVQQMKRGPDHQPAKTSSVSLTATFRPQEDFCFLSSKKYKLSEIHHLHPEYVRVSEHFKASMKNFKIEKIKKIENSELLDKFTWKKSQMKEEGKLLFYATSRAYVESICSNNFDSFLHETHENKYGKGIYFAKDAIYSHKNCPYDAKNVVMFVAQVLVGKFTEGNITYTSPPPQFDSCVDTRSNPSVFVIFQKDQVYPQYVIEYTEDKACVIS
Zinc Finger Antiviral Protein (ZAP), shorter isoform (Q7Z2W4-2, form named): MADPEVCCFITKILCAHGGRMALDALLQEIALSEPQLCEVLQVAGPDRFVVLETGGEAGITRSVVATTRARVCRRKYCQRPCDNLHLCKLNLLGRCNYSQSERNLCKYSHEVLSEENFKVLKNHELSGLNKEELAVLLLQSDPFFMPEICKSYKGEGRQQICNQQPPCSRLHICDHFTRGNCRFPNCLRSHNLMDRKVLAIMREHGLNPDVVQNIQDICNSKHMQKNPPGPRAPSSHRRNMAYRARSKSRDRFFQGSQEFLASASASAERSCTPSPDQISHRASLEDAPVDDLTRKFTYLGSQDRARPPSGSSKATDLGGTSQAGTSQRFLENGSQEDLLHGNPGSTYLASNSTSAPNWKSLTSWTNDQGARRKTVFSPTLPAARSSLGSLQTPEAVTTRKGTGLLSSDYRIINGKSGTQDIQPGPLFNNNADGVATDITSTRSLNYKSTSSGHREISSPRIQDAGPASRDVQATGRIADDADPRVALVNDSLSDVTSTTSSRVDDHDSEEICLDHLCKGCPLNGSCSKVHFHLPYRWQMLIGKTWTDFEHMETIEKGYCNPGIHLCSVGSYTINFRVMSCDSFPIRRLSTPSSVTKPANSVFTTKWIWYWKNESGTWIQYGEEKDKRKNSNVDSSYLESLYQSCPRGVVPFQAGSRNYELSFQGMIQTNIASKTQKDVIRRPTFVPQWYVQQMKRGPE

What was measured:
[1] = target: T7-tagged TRIM25 (wild type) (human) (UniProt Q14258); experiment: co-IP; as a3 but in the presence of RNases A and T1; anti-T7 antibody on protein A agarose; western blot against ZAP and DDX5
[2] = target: T7-tagged TRIM25 (wild type) (human) (UniProt Q14258); experiment: co-IP; extracts of HeLa cells overexpressing T7-tagged TRIM25 constructs, endogenous RNAs present; anti-T7 antibody on protein A agarose; western blot against ZAP and DDX5
[3] = target: T7-tagged TRIM25ΔRBD (lacking residues 470–508) (human) (UniProt Q14258); experiment: co-IP; extracts of HeLa TRIM25 KO cells co-overexpressing T7-tagged and EGFP-tagged TRIM25; anti-T7 antibody on protein A agarose; western blot with anti-TRIM25 and anti-T7 antibodies
[4] = target: T7-tagged TRIM25ΔRBD (lacking residues 470–508) (human) (UniProt Q14258); experiment: co-IP; extracts of HeLa cells overexpressing T7-tagged TRIM25 constructs, endogenous RNAs present; anti-T7 antibody on protein A agarose; western blot against ZAP and DDX5

For DDX5 (from UniProt P17844 1-614), the binding [1] was “binds” and the binding [2] was “binds”.

In the case of “EGFP-tagged TRIM25 (wild type) (from UniProt Q14258 1-630)”, the binding [3] is reported as “binds”.

With “Zinc Finger Antiviral Protein (ZAP), longer isoform (from UniProt Q7Z2W4 1-902)” the binding [4] was “no binding”.

With “Zinc Finger Antiviral Protein (ZAP), shorter isoform (from UniProt Q7Z2W4-2 1-699)” the binding [4] was “no binding”.
